Test system: Haematococcus pluvialis SAG 34-1b
Assay: Growth inhibition of wild strain by herbicides (minimal inhibiting concentration)
Format: cell-based
Conditions: strain SAG 34-1b; concentration also used for selection

| SMILES | minimal concentration of the herbicide which inhibits the growth of the wild strain [µM] |
| --- | --- |
| c1ccc(Nc2ccccc2)cc1 [Diphenylamine, diphenylamine] | 60 |
| CNc1cnn(-c2cccc(C(F)(F)F)c2)c(=O)c1Cl [Norflurazon, norflurazon] | 2 |

— patent publication US8911966B2, “Efficient astaxanthin production strains derived from Haematococcus pluvialis” (Cognis IP Management GmbH, priority 2007, dated 2014)
